Reference: the supplement of paper PMC3334620
Whole data set: some 33,000 sequences, median “E-score (-0.5 to 0.5)” near -0.016, cut for the highest 2% near 0.32. The list shows a part of the results.

Biological target: T1, Stp1 (UniProt B3LFK1)
T1 sequence: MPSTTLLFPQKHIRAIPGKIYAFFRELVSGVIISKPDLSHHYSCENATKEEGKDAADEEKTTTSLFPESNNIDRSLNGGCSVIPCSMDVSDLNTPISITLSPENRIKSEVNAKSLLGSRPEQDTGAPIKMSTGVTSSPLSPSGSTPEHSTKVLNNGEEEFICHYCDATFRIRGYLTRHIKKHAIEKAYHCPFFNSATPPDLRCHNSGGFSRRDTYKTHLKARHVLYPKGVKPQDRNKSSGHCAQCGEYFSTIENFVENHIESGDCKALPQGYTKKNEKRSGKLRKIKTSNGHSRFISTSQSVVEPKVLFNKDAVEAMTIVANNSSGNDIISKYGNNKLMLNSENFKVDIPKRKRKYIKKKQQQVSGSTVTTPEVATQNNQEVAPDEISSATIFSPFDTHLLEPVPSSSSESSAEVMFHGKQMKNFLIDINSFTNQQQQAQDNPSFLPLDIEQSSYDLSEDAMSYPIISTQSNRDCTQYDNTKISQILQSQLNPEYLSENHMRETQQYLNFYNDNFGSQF
Assay: PBM E-score (8-mer binding enrichment) (E-score (-0.5 to 0.5)); higher = stronger / more preferred TF binding; most listed sequences are background and not binding sites
Details: protein concentration: 200 nM; construct: GST-full length
Summary of the method: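 Each ungapped eight-base word and its reverse complement, pooled, received an E-score from the Universal PBM Analysis Suite. Underlying scans, normalised with masliner, recorded fluorescent anti-GST bound to GST-tagged yeast transcription factors. These were applied at about 100-200 nM to universal all-10-mer Agilent arrays double-stranded by primer extension.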

Sequence	PBM E-score
ACCGCTTC	-0.116
TCAGCAGA	-0.0689
AGTACACT	-0.071
GTTCCGAA	0.0739
TAGGGGGA	-0.373
TTTCAAAA	0.241
AACTGGTA	-0.105
ATTAACCA	0.0867
CCGAGCAG	0.0183
AACACCAG	-0.309
AACGAGGT	-0.111
GTGTTTTA	0.116
CCTCCGGA	-0.321
GGGCATGA	-0.0369
CCCCGATC	-0.427
ACGAGGCT	0.323
CTAATGGA	-0.0401
CTATATTC	-0.141
ACAGTAAG	0.0834
ATCTCCAA	-0.0663
CCGGAAGC	0.00357
AGTCGCTG	-0.0658

Sequence	PBM E-score
TAAGTGGA	-0.0459
ATTCAACC	-0.0803
AGTTAAAT	0.133
GTCAAGCA	-0.2
CGGTCTCA	-0.0356
GTCCCTCA	-0.234
TCGATGAA	0.0501
ATTCTCTC	-0.131
ATCATCAA	0.08
GCTACAAC	-0.194
TAGCGGGA	-0.254
AAGTGAGA	-0.156
TAACTGCA	-0.00649
CTACAATA	0.181
CGCTCGTA	0.108
ACGTGTCA	-0.0154
ACAGTTCT	-0.0254
CGAGCAAG	-0.213
TCTGCGAA	-0.129
GCGGTGAC	-0.0836
TAAGGCCA	0.0323
CTACGCGC	0.117

Sequence	PBM E-score
GCGATTGA	0.03
AACAGAAG	0.132
CAGCTTTC	-0.1
GCGGGGCA	0.202
CCGTGTAA	0.25
AAGGCACC	0.402
CTACTCAA	0.16
GACTCAGC	-0.128
ACTCAGTA	0.0277
CAACGCCG	0.391
CCACAAGC	-0.13
ACTCCGAG	-0.12
CGCCGTAC	0.487
CTGCTCTC	-0.234
GCATCTAC	0.0127
GACGACCC	-0.149
AACTCCCT	-0.221
CATTTATC	0.153
GACAGATC	0.0305
ACAAAACC	0.0627
GTTTTATA	0.226
ACGATTCT	0.0374

Sequence	PBM E-score
ACTCAATG	0.0341
ACCTCGGG	-0.201
GAGGGTAA	-0.0792
CGGGGTAC	-0.228
CAGGTCGC	-0.161
ACTGTAGA	0.0582
AGGGTATA	-0.0768
ATGGGTTC	-0.355
TCAAATAA	0.171
ATTTCTCA	0.114
AATGTCGC	-0.0462
CTCCGGCA	0.104
GGGTCGAC	-0.151
CCAAGGCA	0.173
ACCGTGTC	0.155
GACCCAAC	-0.0726
ACACTTCC	0.00565
AAGCTTTA	-0.0675
CAGCGTAC	-0.112
CTCCTTTC	-0.138
